The campaign covered roughly 370,000 compounds. About 150 (0.041%) were called active. Inconclusive means that the source gave no clear call. Such entries were picked first, then a sample of the others. Calls follow the shape of the dose curve; as a rule, active = well fitted inhibition curve with a large enough effect; inconclusive = small, poorly fitted or top-dose-only effect; inactive = flat fitted curve, though single readings scatter. Potencies of inconclusive entries are left out as doubtful fits.
Target: Beta-lactamase (Escherichia coli (strain K12)) (UniProt P00811)
Sequence of UniProt P00811 (P00811 whole entry, looked up): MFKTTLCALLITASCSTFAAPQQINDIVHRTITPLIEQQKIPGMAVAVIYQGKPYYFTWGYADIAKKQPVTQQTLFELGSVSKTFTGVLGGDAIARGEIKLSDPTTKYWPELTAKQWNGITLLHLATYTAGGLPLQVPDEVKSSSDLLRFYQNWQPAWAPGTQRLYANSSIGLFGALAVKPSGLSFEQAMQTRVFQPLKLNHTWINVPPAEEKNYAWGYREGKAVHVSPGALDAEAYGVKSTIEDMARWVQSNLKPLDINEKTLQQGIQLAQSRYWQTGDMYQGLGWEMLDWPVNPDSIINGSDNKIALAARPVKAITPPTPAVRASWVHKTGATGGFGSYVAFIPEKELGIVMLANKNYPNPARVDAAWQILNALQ
Experiment: qHTS Inhibitors of AmpC Beta-Lactamase (assay with detergent); also: nearly all actives have a fitted effect of over 25% in size
Details: AmpC hydrolysis of nitrocefin, absorbance 480 nm, 0.01% Triton; series mostly up to 114 µM
Method in brief: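 AmpC (5.3 nM in the dispensed reagent) in 20 mM phosphate pH 7.0 with 0.01% (detergent screen) or 0.0001% Triton X-100 was preincubated with compounds for 15 min at room temperature. Nitrocefin was then added from an 800 uM solution, and hydrolysis was followed at 480 nm.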
Potency is read from the fitted curve at half-maximal effect; tags tell the direction and shape of the fitted curve.

SMILES | Potency
CCC1CCCCN1C(=O)CSc1nc2ccsc2c(=O)n1Cc1ccccc1 (stereo not drawn) | inconclusive [inhibitor, full curve, poor fit]
CCC1CCCCN1CCCNC(=O)c1ccc2c(c1)NC(=O)CN2C (stereo not drawn) | inactive
O=S(=O)(Nc1cc2nc3ccccc3nc2n1Cc1ccccc1)c1ccc(Cl)cc1 | inconclusive [inhibitor, full curve, poor fit]
CN(C)C(=O)c1ccc2c(c1)n(C)c(=O)n2C | inconclusive [inhibitor, partial curve, poor fit]
Cc1ccc(C(=O)/C=C/c2cc(C#N)n(C)c2C)cc1 | inactive
Cc1cc(C)c(C#N)c(SCC(=O)Nc2ccccc2C(N)=O)n1 | inconclusive [inhibitor, partial curve, poor fit]
O=C(NC(=S)NC1C2CC3CC(C2)CC1C3)c1ccccc1 (stereo not drawn) | inactive
C/C(CCC1CC(C)OC1=O)=N/Nc1nc(-c2ccccc2)cs1 (stereo not drawn) | inconclusive [inhibitor, full curve, poor fit]
CC(C)Oc1ccccc1C1CC(=O)Nc2cc3c(cc21)OCCO3 (stereo not drawn) | inconclusive [inhibitor, partial curve, poor fit]
O=C(NC(=S)NC(=O)c1ccccc1F)c1ccccc1F | inconclusive [inhibitor, full curve, poor fit]
CCCOC(=O)CSC1=C(C#N)C(c2ccccc2OC)C(C#N)C(=O)N1 (stereo not drawn) | inconclusive [inhibitor, single point]
CCOC(=O)c1ccc(-c2c(-c3cc(OC)c(OC)c(OC)c3)noc2C)cc1F | inconclusive [inhibitor, full curve, poor fit]
CCOC(=O)c1ccc(NC(=O)c2ccc[n+]([O-])c2)cc1 | inconclusive [inhibitor, partial curve, poor fit]
O=C(Nc1ccccc1Oc1cccnc1)C1CCCN(C/C=C/c2ccc(F)cc2)C1 (stereo not drawn) | inconclusive [inhibitor, partial curve, poor fit]
COc1ccc(Oc2nnnn2-c2ccccc2)cc1 | inconclusive [inhibitor, partial curve]
CCC(=O)N/N=C(\C)CC(=O)Nc1cccc([N+](=O)[O-])c1 | inconclusive [inhibitor, partial curve, poor fit]
NNc1nc2c(F)cccc2s1 | inconclusive [inhibitor, partial curve, poor fit]
CCOC(=O)c1ccc(NC(=O)C23CCC(C)(C(=O)O2)C3(C)C)cc1 (stereo not drawn) | inconclusive [inhibitor, full curve, poor fit]
O=C(CC(c1ccc(F)cc1)c1ccco1)N1CCCC1 (stereo not drawn) | inactive
CC(C)CC(NC(=O)C1CCCCC1)C(=O)Nc1cccc(C(F)(F)F)c1 (stereo not drawn) | inactive
COc1ccccc1OCCSc1nc2ccccc2n1CCC(=O)O | inconclusive [inhibitor, full curve, poor fit]
CCOC(=O)C1CCN(C(=O)CN(c2cccc(C(F)(F)F)c2)S(C)(=O)=O)CC1 | inconclusive [inhibitor, full curve, poor fit]

SMILES | Potency
O=C1c2ccccc2C(=O)N1CCc1nc2ccccc2c(=O)n1-c1ccccn1 | inconclusive [inhibitor, full curve, poor fit]
CCCCNc1c2c3c(cccc3n(C)c1=O)C(=O)c1ccccc1-2 | inactive
Cc1noc(C)c1C(=O)Nc1c(F)cc(F)cc1Br | inactive
CCOc1ccc(S(=O)(=O)Nc2ccc(C(=O)NCCCN3CCCC3=O)cc2)cc1 | inconclusive [inhibitor, full curve, poor fit]
CSc1ccccc1NC(=O)c1cc(C(C)C)on1 | inactive
CCCOC(=O)c1sc2nc3c(cc2c1N)C(=O)CCC3 | inconclusive [inhibitor, full curve, poor fit]
COc1ccc2cc(C(=O)Nc3ccc(Cl)cc3)sc(=O)c2c1OC | inconclusive [inhibitor, full curve]
Cc1scc(CN2CCN(c3ccc(F)cc3)CC2)c1C | inactive
O=C(CNC(=O)c1ccco1)Nc1ccc(S(=O)(=O)N2CCCC2)cc1 | inconclusive [inhibitor, full curve, poor fit]
COc1cc(/C=C2\SC(=N)N(c3ccc4c(c3)OCO4)C2=O)cc(OC)c1O | inconclusive [inhibitor, single point]
Cc1nnc2n(Cc3ccccc3)c(=O)c3c4c(sc3n12)CCCC4 | inconclusive [inhibitor, full curve, poor fit]
O=C(Nc1ccccc1C(=O)Nc1ccccn1)c1ccccc1F | inconclusive [inhibitor, partial curve, poor fit]
CCOc1[nH]c(/N=C/c2ccco2)c(C#N)c1C#N | inconclusive [inhibitor, full curve, poor fit]
C(=N\c1nccs1)/c1c[nH]c2ccccc12 | inactive
CCCCC1CCC(C(=O)NC2CCS(=O)(=O)C2)CC1 (stereo not drawn) | inconclusive [inhibitor, partial curve, poor fit]
CCN(CC)CCN(Cc1cc2cc(C)ccc2[nH]c1=O)C(=S)NCc1ccco1 | inactive
Cc1ccnc(N2CCC(C(=O)NCc3ccc4c(c3)OCO4)CC2)n1 | inconclusive [inhibitor, full curve]
COc1ccc(OC)c(C(=O)COC(=O)C(CCSC)NC(=O)COc2ccccc2)c1 (stereo not drawn) | inconclusive [inhibitor, full curve, poor fit]
Cc1ccc(S(=O)(=O)Cc2ccc(C(=O)N3CCc4ccccc4C3)o2)cc1 | inconclusive [inhibitor, partial curve, poor fit]
Cc1cc2oc(C(=O)N(Cc3ccccc3F)C3CCS(=O)(=O)C3)c(C)c2cc1Cl (stereo not drawn) | inactive
O=c1[nH]c2ccccc2nc1N1CCOCC1 | inconclusive [inhibitor, single point]

Reference: PubChem BioAssay AID485294 (National Center for Advancing Translational Sciences (NCATS), 2010)
